# Test results as given in the supplement of paper PMC6531468.
# The other results are listed elsewhere or left out. Read counts after selection give these values, which scatter widely. Scores sum up all selected molecules that hold the word; the word was not tested alone.
# System: IMP3 KH1-4
# Experiment: 6-mer SELEX enrichment z-score vs GST control; IMP3 is the RNA-binding protein IGF2BP3; higher = more enriched by binding
# Conditions: construct: KH1-4 (164-579); SELEX round: R4
# Procedure: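 SELEX-seq with GST-tagged IMP3 KH1-4 (Pro164-Lys579) and an N40 RNA pool, round 4. 6-mer z-score of sequence-tag enrichment normalised to the corresponding GST SELEX round; RNA k-mers written as DNA (T for U).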
# Sequence of IMP3 KH1-4 (chain, as listed by the source): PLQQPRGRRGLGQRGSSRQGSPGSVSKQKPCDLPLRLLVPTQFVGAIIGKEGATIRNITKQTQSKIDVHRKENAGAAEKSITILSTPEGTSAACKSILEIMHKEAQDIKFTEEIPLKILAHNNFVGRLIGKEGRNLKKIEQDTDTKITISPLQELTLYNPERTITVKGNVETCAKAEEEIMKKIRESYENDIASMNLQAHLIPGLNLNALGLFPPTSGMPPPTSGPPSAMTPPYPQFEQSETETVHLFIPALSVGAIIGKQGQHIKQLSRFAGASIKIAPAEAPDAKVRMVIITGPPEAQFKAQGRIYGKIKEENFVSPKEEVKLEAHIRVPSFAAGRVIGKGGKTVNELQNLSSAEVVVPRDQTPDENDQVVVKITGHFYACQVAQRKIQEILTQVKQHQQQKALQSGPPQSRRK
row,Sequence,6-mer SELEX enrichment z-score
1,CATACG,0.831
2,GGCAAC,0.466
3,GACTTT,0.246
4,TACCCC,-0.445
5,GGTCCT,-0.252
6,GACATG,0.764
7,GGGATA,0.524
8,ACGAAT,0.453
9,TATCCT,-0.186
10,TTCCGA,-0.694
11,AAGTCC,-0.05
12,GGCATC,1.51
13,GTAACA,0.078
14,GCTAGG,-0.035
15,TCCTCT,0.643
16,AGATGT,0.488
17,CTGTGA,0.033
18,GAGCTC,-0.63
19,CGGCTC,0.279
20,GTCACC,-0.246

row,Sequence,6-mer SELEX enrichment z-score
1,ACTAAC,0.661
2,TCAAAC,-0.619
3,GCTACC,-0.265
4,TACAGA,0.867
5,CCTCTA,-0.071
6,TGGATT,0.477
7,TACGGC,1.78
8,TGCCAT,0.43
9,ACGTGA,-0.173
10,GTCGTT,-0.048
11,GCTTAG,-0.447
12,GGCCAA,0.669
13,GGTACA,-0.239
14,TGCCGC,0.351
15,CGAAAG,-1.88
16,GATAAG,0.695
17,ATTGAA,0.978
18,GGTCTA,0.051
19,TACGGG,0.073
20,TCAAAG,-0.789
